Laboratory results reported in PMC12136788.
Some of the results follow.

T1: UNK ZnF1-3 (human, UniProt Q9C0B0 31-174)
T1 sequence: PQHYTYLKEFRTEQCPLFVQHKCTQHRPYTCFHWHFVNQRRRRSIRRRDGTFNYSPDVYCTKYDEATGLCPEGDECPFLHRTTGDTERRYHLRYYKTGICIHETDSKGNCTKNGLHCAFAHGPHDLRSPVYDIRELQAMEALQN

B1: chr8:117878989:117878990:-_ENSG00000164754_ENST00000297338|hu_hu|hu_hu_hu_mus_True|38_38 (ssRNA)
RNA: GGGAGUUCUACAGUCCGACGAUCCCAGAGGCCCUCGUUUACUGAGGACAAAAUGUGCGUAGAACAUUUUUCUUAUUUGCUAUGAAAUAAGAAGAAAACCUUGCUCUGGCGGGGAGCCGGGAGGGGUGGGUGGCCCGGGGAGGGCAACAGAGGAUUGAGCAUCA
B2: 126172741_126172861_247_CDS_ENSG00000107902_ENST00000368842|human|control|control (ssRNA)
RNA: GGGAGUUCUACAGUCCGACGAUCCUCCUUCAGGAUCUGGCAGGCAGCUGGUGCCGGGGCGGUCACCUCCUGCUCAGAGAUGUCAAAUCCCAGCCUCUGAAGCUGCCCCACCAGCUCUGCCCGGGACUUCUGCGACUCGUUGGUCAACAGAGGAUUGAGCAUCA
B3: chr20:37186997:37186998:+_ENSG00000170471_ENST00000397040|hu_mus|FALSE|FALSE (ssRNA)
RNA: GGGAGUUCUACAGUCCGACGAUCAUCAAAAAAUCCAGGUAUGGUAGAAUCGAGUGCAAUAAGAUGAGGAGGUAGACGACUAUUUGCAGGUUCCUUUAAUGCCUCUAAGGAUAAAAAUCCAAAGUGAGAAAGGAAAAGGCGGGCCAACAGAGGAUUGAGCAUCA
B4: chr20:57015987:57015988:+_ENSG00000124164_ENST00000520497|hu_hu|FALSE|FALSE (ssRNA)
RNA: GGGAGUUCUACAGUCCGACGAUCUCCAUAACCUUCUUAACUUCGGUGUCAUCCAAAGAAGAACUCAGAGACUUAGACACUAUUGGUGUUUCUGUCUUUGAUGCAGUUGUGGAUAUAAUUUUAUUUAUUUCUACAUCAUGCAGACAACAGAGGAUUGAGCAUCA
B5: chr5:10263280:10263281:+_ENSG00000150753_ENST00000503026|hu_hu|FALSE|FALSE (ssRNA)
RNA: GGGAGUUCUACAGUCCGACGAUCGAGGGCCAUGGGGAUGACCUCCAGUGCGUCGGCAAACGCUCUCAUGGCAUACUGUUCUAAGGUGGGGCACUUAUCCGCCUCUUGGCUAACUGCCAGGGCACAGGAUAUCUCAGCAGCCCCCAACAGAGGAUUGAGCAUCA
B6: chr6:86246577:86246578:-_ENSG00000135317_ENST00000369627|hu_mus|FALSE|FALSE (ssRNA)
RNA: GGGAGUUCUACAGUCCGACGAUCUAAUUAGGCAGCACAGCUCCCUCCAUUGUCGUACUCUUGAAUACGCCUUUAAUUUUGCUACCUAUUCUGCUGAUUCCAAACGAUUCUCCUCUUUUUUGUGUGCUUCUAAAUAUUAAACAACAACAGAGGAUUGAGCAUCA
B7: chr7:7679991:7679992:-_ENSG00000106399_ENST00000396682|hu_hu|hu_hu_hu_mus_False|38_78 (ssRNA)
RNA: GGGAGUUCUACAGUCCGACGAUCUGGGAUGAAUCUUUUCCAGCUUCCCCACGAAGCAGACAGGCUUGUCGAUAUACUGUGGUAACAUGCUGGCGUUGAUGCGCGACUUGGGGAGCUGCAUUAUGUCCUCCAUGAUUCUGCCGCCAACAGAGGAUUGAGCAUCA
B8: chr9:59476459:59476460:+_ENSMUSG00000025237_ENSMUST00000026267|mus_mus|FALSE|FALSE (ssRNA)
RNA: GGGAGUUCUACAGUCCGACGAUCUUUCAGCAUAGAGUCCUGUAUGAUAGGAAAACUGGGAGACUUGGGAAUGGGUGAGAAGAUGCUGAGGCCAGCUCGGAACUUCUUGAUGGUACCACUUGCCUUGAACCAACUGUGCCUCUUCAACAGAGGAUUGAGCAUCA
B9: chr7:106468345:106468346:+_ENSMUSG00000055407_ENSMUST00000127492|mus_hu|FALSE|FALSE (ssRNA)
RNA: GGGAGUUCUACAGUCCGACGAUCCCCAAACACUGCUUGUGGAACCAAAAUCAGUUUCAUUCAGUACGUUUGGGAUAUAGAAUGAGACUGGCUGAGUUUUAUUUGUAAACAGUAGAAAUCAAAGGAAGUCUCUUGCCAGUAAAGCAACAGAGGAUUGAGCAUCA
B10: chr10:1038518:1038519:+_ENSG00000107937_ENST00000545048|hu_hu|hu_hu_hu_mus_False|58_68 (ssRNA)
RNA: GGGAGUUCUACAGUCCGACGAUCCAGUCUGUCAUGGUAAUUCUGUUGAGUAAAUUUGACUUUUCUCAUGUAAAAAUGUCUAAUGCGAUGAAUUUGAUAAUGUUUAUGAAUAACCGUUGGAGUCUUUCGUUGAGUCUUGGAUAACAACAGAGGAUUGAGCAUCA
B11: chrX:71549400:71549401:+_ENSMUSG00000019087_ENSMUST00000019231|mus_hu|mus_mus_mus_hu_False|78_108 (ssRNA)
RNA: GGGAGUUCUACAGUCCGACGAUCGCAAGGAAGAGGAGGAAGCUCUUCAGUCCAGUGGUCACAAAACUGGGAAAGCAACAACACGGACACCGUCCCACCCUCAACCCCCCCACUGGCACAGGGUCACACAAUCUGGGUCAAAGACAACAGAGGAUUGAGCAUCA
B12: chr12:28025581:28025582:-_ENSMUSG00000063632_ENSMUST00000079063|mus_mus|FALSE|FALSE (ssRNA)
RNA: GGGAGUUCUACAGUCCGACGAUCUUUUUAAAUCUCUUAAGAAAAAAAAAUCAACUCCCUAGAGUAACAGUUGUGCCGUCUAAAGGGUCCUCUGCCGAUGUCUUUCAGACUUCAAAGAGCCACAAGCUUCAAACAGCGCCUUCCCAACAGAGGAUUGAGCAUCA
B13: chr7:140404665:140404666:+_ENSG00000090266_ENST00000247866|hu_hu|hu_hu_hu_mus_False|28_108 (ssRNA)
RNA: GGGAGUUCUACAGUCCGACGAUCUGCGUACAGAGUGCCAGAGAGUUUACAGUGUCAGUCCUCGUCAUCAGGAGGGAUUCCCAGUUCUUCAUCUGUCCACUGUGAAGGAUCAGGAUAUGAAAAGUGACCCAGCACAGCAUCCGACAACAGAGGAUUGAGCAUCA
B14: chr2:31148120:31148121:+_ENSMUSG00000062661_ENSMUST00000000199|mus_mus|FALSE|FALSE (ssRNA)
RNA: GGGAGUUCUACAGUCCGACGAUCCAGUAUCCUUUAGAACAGAAGGUAGUUUGUUUUCUUUUACAAUGUCCGUUUGAAAUAAAAAAAGAAAGCACACAGGCCGGACAGCAGGAAGAAUGGGGUGGCUGCCGAGGGAGACAGCCGCAACAGAGGAUUGAGCAUCA

target: T1, UNK ZnF1-3; assay: nsRBNS (natural sequence RNA bind-n-seq); RBNS binding buffer (assumed for nsRBNS): 25 mM Tris pH 7.5, 150 mM KCl, 3 mM MgCl2, 0.01% Triton X-100, 500 ug/ml BSA, 20 U/ml SUPERase-In, 4 C; UNK is unkempt and MSI1 is Musashi-1; names of the RNAs are library labels; protein concentration not given here; high values mean tight binding

Binder | binding signal
B1 | 1.64 enrichment R
B2 | 0.367 enrichment R
B3 | 1.49 enrichment R
B4 | 0.477 enrichment R
B5 | 0.947 enrichment R
B6 | 0.988 enrichment R
B7 | 0.54 enrichment R
B8 | 0.995 enrichment R
B9 | 0.853 enrichment R
B10 | 0.778 enrichment R
B11 | 1.74 enrichment R
B12 | 0.808 enrichment R
B13 | 1.01 enrichment R
B14 | 1.71 enrichment R
